Measured values as given in paper PMC3795639.
Results are given in words; binding and its absence hold for the method and conditions named. In cells and extracts the contact can be indirect. Some binding calls cover weakened binding; strength is not graded here. Sequences can lack the tags named with a protein.

By UniProt entry, the sequences of proteins in these tests, tags left out.
UniProt P84022: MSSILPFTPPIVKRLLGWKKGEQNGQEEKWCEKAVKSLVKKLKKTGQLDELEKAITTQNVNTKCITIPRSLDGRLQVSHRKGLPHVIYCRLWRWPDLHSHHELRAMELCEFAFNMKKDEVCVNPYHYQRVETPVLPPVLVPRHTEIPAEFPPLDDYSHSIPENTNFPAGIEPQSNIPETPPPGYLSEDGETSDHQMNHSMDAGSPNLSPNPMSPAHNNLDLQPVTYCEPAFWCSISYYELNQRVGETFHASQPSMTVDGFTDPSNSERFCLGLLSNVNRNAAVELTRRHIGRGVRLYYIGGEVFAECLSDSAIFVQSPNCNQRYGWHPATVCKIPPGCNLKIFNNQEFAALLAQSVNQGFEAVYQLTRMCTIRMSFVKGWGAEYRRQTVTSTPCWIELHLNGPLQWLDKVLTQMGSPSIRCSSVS
UniProt Q15797: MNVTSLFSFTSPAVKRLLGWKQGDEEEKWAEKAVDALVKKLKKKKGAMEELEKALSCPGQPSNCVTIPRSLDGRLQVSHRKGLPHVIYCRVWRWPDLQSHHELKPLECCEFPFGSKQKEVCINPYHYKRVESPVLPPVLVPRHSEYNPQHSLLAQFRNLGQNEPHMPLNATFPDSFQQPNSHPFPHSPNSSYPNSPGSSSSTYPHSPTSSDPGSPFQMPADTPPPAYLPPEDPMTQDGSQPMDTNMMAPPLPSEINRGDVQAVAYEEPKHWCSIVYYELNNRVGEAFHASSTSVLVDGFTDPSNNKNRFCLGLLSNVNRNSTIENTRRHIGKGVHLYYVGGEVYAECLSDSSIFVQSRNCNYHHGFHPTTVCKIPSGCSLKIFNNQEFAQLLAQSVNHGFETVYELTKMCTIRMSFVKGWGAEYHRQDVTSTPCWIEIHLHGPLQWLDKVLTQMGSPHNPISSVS
UniProt Q99717: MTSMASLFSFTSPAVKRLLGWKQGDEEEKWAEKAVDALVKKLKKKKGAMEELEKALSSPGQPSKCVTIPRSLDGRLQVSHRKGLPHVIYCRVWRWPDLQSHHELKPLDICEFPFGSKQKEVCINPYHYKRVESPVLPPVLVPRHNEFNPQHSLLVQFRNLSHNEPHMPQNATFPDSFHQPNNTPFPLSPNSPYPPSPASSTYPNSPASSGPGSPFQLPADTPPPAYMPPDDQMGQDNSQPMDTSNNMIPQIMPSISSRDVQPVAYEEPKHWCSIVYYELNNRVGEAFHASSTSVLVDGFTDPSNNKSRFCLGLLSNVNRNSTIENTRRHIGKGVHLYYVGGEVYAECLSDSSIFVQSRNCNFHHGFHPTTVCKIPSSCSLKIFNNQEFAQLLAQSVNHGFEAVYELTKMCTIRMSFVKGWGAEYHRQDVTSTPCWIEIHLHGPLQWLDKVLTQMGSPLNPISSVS

How the values were obtained:
Flag-tagged Smad3 [1] = molecular target: Flag-tagged Smad3 (UniProt P84022); assay: co-IP; as a1, but extracts of transfected HEK293T cells that were not stimulated with ligand
Flag-tagged Smad1 = Flag-tagged Smad1 (UniProt Q15797); assay: co-IP; extracts of transfected HEK293T cells stimulated 24 h after transfection with rhTGFβ1 (5 ng/ml) or rhBMP4 (25 ng/ml) for 1.5 h; lysis buffer 170 mM NaCl, 10 mM EDTA, 50 mM Tris-HCl pH7.4, 0.5% NP-40; 500 µg of protein incubated overnight with protein G magnetic beads bound to anti-HA or anti-FLAG antibody; Western blot
Flag-tagged Smad3 [2] = molecular target: Flag-tagged Smad3 (UniProt P84022); assay: as above
Flag-tagged Smad5 = Flag-tagged Smad5 (UniProt Q99717); assay: as above

binding (Flag-tagged Smad1)	binding (Flag-tagged Smad3 [2])	binding (Flag-tagged Smad5)	Binder	binding (Flag-tagged Smad3 [1])
binds	binds	binds	peptide aptamer A1 (entire 51 aa-long Sip1 SBD inserted in HA-tagged Trx) (domain or fragment, UniProt Q9R0G7 437-487) QHLGVGMEAPLLGFPTMNSNLSEVQKVLQIVDNTVSRQKMDCKTEDISKLK	no binding (condition: cells not stimulated with TGFβ1)
binds	binds	–	full-length, wild-type (WT) Myc-tagged Sip1 (protein, UniProt Q9R0G7 1-1215) MKQPIMADGPRCKRRKQANPRRKNVVNYDNVVDAGSETDEEDKLHIAEDDSLANPLDQDTSPASMPNHESSPHMSQGLLPREEEEEELRESVVEHSWHSGEILQASVAGPEEMKEDYDAMGPEATIQTTINNGTVKNANCTSDFEEYFAKRKLEERDGHAVSIEEYLQRSDTAIIYPEAPEELSRLGTPEANGQEENDLPPGTPDAFAQLLTCPYCDRGYKRLTSLKEHIKYRHEKNEENFSCPLCSYTFAYRTQLERHMVTHKPGTDQHQMLTQGAGNRKFKCTECGKAFKYKHHLKEHLRIHSGEKPYECPNCKKRFSHSGSYSSHISSKKCIGLISVNGRMRNNIKTGSSPNSVSSSPTNSAITQLRNKLENGKPLSMSEQTGLLKIKTEPLDFNDYKVLMATHGFSGSSPFMNGGLGATSPLGVHPSAQSPMQHLGVGMEAPLLGFPTMNSNLSEVQKVLQIVDNTVSRQKMDCKTEDISKLKGYHMKDPCSQPEEQGVTSPNIPPVGLPVVSHNGATKSIIDYTLEKVNEAKACLQSLTTDSRRQISNIKKEKLRTLIDLVTDDKMIENHSISTPFSCQFCKESFPGPIPLHQHERYLCKMNEEIKAVLQPHENIVPNKAGVFVDNKALLLSSVLSEKGLTSPINPYKDHMSVLKAYYAMNMEPNSDELLKISIAVGLPQEFVKEWFEQRKVYQYSNSRSPSLERTSKPLAPNSNPTTKDSLLPRSPVKPMDSITSPSIAELHNSVTSCDPPLRLTKSSHFTNIKAVDKLDHSRSNTPSPLNLSSTSSKNSHSSSYTPNSFSSEELQAEPLDLSLPKQMREPKGIIATKNKTKATSINLDHNSVSSSSENSDEPLNLTFIKKEFSNSNNLDNKSNNPVFGMNPFSAKPLYTPLPPQSAFPPATFMPPVQTSIPGLRPYPGLDQMSFLPHMAYTYPTGAATFADMQQRRKYQRKQGFQGDLLDGAQDYMSGLDDMTDSDSCLSRKKIKKTESGMYACDLCDKTFQKSSSLLRHKYEHTGKRPHQCQICKKAFKHKHHLIEHSRLHSGEKPYQCDKCGKRFSHSGSYSQHMNHRYSYCKREAEEREAAEREAREKGHLEPTELLMNRAYLQSITPQGYSDSEERESMPRDGESEKEHEKEGEEGYGKLRRRDGDEEEEEEEEESENKSMDTDPETIRDEEETGDHSMDDSSEDGKMETKSDHEEDNMEDGME	–
no binding	no binding	–	full-length Sip1(AxAx)2 mutant (protein, UniProt Q9R0G7 1-1215) MKQPIMADGPRCKRRKQANPRRKNVVNYDNVVDAGSETDEEDKLHIAEDDSLANPLDQDTSPASMPNHESSPHMSQGLLPREEEEEELRESVVEHSWHSGEILQASVAGPEEMKEDYDAMGPEATIQTTINNGTVKNANCTSDFEEYFAKRKLEERDGHAVSIEEYLQRSDTAIIYPEAPEELSRLGTPEANGQEENDLPPGTPDAFAQLLTCPYCDRGYKRLTSLKEHIKYRHEKNEENFSCPLCSYTFAYRTQLERHMVTHKPGTDQHQMLTQGAGNRKFKCTECGKAFKYKHHLKEHLRIHSGEKPYECPNCKKRFSHSGSYSSHISSKKCIGLISVNGRMRNNIKTGSSPNSVSSSPTNSAITQLRNKLENGKPLSMSEQTGLLKIKTEPLDFNDYKVLMATHGFSGSSPFMNGGLGATSPLGVHPSAQSPMQHLGVGMEAPLLGFPTMNSNLSEVAKALAIADNTVSRQKMDCKTEDISKLKGYHMKDPCSQPEEQGVTSPNIPPVGLPVVSHNGATKSIIDYTLEKVNEAKACLQSLTTDSRRQISNIKKEKLRTLIDLVTDDKMIENHSISTPFSCQFCKESFPGPIPLHQHERYLCKMNEEIKAVLQPHENIVPNKAGVFVDNKALLLSSVLSEKGLTSPINPYKDHMSVLKAYYAMNMEPNSDELLKISIAVGLPQEFVKEWFEQRKVYQYSNSRSPSLERTSKPLAPNSNPTTKDSLLPRSPVKPMDSITSPSIAELHNSVTSCDPPLRLTKSSHFTNIKAVDKLDHSRSNTPSPLNLSSTSSKNSHSSSYTPNSFSSEELQAEPLDLSLPKQMREPKGIIATKNKTKATSINLDHNSVSSSSENSDEPLNLTFIKKEFSNSNNLDNKSNNPVFGMNPFSAKPLYTPLPPQSAFPPATFMPPVQTSIPGLRPYPGLDQMSFLPHMAYTYPTGAATFADMQQRRKYQRKQGFQGDLLDGAQDYMSGLDDMTDSDSCLSRKKIKKTESGMYACDLCDKTFQKSSSLLRHKYEHTGKRPHQCQICKKAFKHKHHLIEHSRLHSGEKPYQCDKCGKRFSHSGSYSQHMNHRYSYCKREAEEREAAEREAREKGHLEPTELLMNRAYLQSITPQGYSDSEERESMPRDGESEKEHEKEGEEGYGKLRRRDGDEEEEEEEEESENKSMDTDPETIRDEEETGDHSMDDSSEDGKMETKSDHEEDNMEDGME	–
binds	binds	–	EVQKVLQIVDNTVS (domain or fragment, UniProt Q9R0G7 459-472) [peptide aptamer A6 (Sip1 aa459-472 inserted in HA-tagged Trx)]	–
